The other results are listed elsewhere or left out.
How the values were obtained:
Assay in all cases: glycan array binding signal (z-score within array); higher = stronger binding
Details in all cases: glycan notation: IUPAC condensed, linker removed
[1] = target: Gal(b1-3)[Fuc(a1-4)]GlcNAc(b1-3)[Fuc(a1-3)[Gal(b1-4)]GlcNAc(b1-6)]Gal(b1-4)Glc
Procedure, shortened: (§1)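 The Consortium for Functional Glycomics database supplied 3228 glycan arrays, of which those lacking an available protein sequence were dropped. The binding signal, a within-array Z-score, was averaged across arrays of the same protein sequence and across linkers. Negative scores can be read as non-binding.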

[2] = target: Gal(b1-3)[Neu5Ac(a2-6)]GlcNAc(b1-3)Gal(b1-4)Glc
Procedure, shortened: as §1

Gal(b1-4)Glc = target: Gal(b1-4)Glc
Procedure, shortened: as §1

Gal(b1-4)GlcNAc = target: Gal(b1-4)GlcNAc
Procedure, shortened: as §1

[3] = target: Gal(b1-4)GlcNAc(b1-2)Man(a1-3)[Gal(b1-4)GlcNAc(b1-2)Man(a1-6)]Man(b1-4)GlcNAc(b1-4)GlcNAc
Procedure, shortened: as §1

[4] = target: Gal(b1-4)GlcNAc(b1-2)Man(a1-3)[Gal(b1-4)GlcNAc(b1-2)Man(a1-6)]Man(b1-4)GlcNAc(b1-4)[Fuc(a1-6)]GlcNAc
Procedure, shortened: as §1

[5] = target: Gal(b1-4)GlcNAc(b1-2)Man(a1-3)[Gal(b1-4)GlcNAc(b1-2)Man(a1-6)][GlcNAc(b1-4)]Man(b1-4)GlcNAc(b1-4)[Fuc(a1-6)]GlcNAc
Procedure, shortened: as §1

[6] = target: Gal(b1-4)GlcNAc(b1-2)Man(a1-3)[Man(a1-6)]Man(b1-4)GlcNAc(b1-4)GlcNAc
Procedure, shortened: as §1

[7] = target: Gal(b1-4)GlcNAc(b1-2)Man(a1-6)[GlcNAc(b1-2)Man(a1-3)]Man(b1-4)GlcNAc(b1-4)[Fuc(a1-6)]GlcNAc
Procedure, shortened: as §1

[8] = target: Gal(b1-4)GlcNAc(b1-2)Man(a1-6)[Man(a1-3)]Man(b1-4)GlcNAc(b1-4)GlcNAc
Procedure, shortened: as §1

[9] = target: Gal(b1-4)GlcNAc(b1-2)Man(a1-6)[Man(a1-3)]Man(b1-4)GlcNAc(b1-4)[Fuc(a1-6)]GlcNAc
Procedure, shortened: as §1

[10] = target: Gal(b1-4)GlcNAc(b1-2)[Gal(b1-4)GlcNAc(b1-4)]Man(a1-3)[Fuc(a1-3)[Gal(b1-4)]GlcNAc(b1-2)Man(a1-6)]Man(b1-4)GlcNAc(b1-4)GlcNAc
Procedure, shortened: as §1

[11] = target: Gal(b1-4)GlcNAc(b1-2)[Gal(b1-4)GlcNAc(b1-4)]Man(a1-3)[Gal(b1-4)GlcNAc(b1-2)Man(a1-6)]Man(b1-4)GlcNAc(b1-4)GlcNAc
Procedure, shortened: as §1

[12] = target: Gal(b1-4)GlcNAc(b1-2)[Gal(b1-4)GlcNAc(b1-4)]Man(a1-3)[Gal(b1-4)GlcNAc(b1-2)[Gal(b1-4)GlcNAc(b1-6)]Man(a1-6)]Man(b1-4)GlcNAc(b1-4)GlcNAc
Procedure, shortened: as §1

Gal(b1-4)GlcNAc(b1-3)Fuc = target: Gal(b1-4)GlcNAc(b1-3)Fuc
Procedure, shortened: as §1

[13] = target: Gal(b1-4)GlcNAc(b1-3)Gal(b1-4)Glc
Procedure, shortened: as §1

[14] = target: Gal(b1-4)GlcNAc(b1-3)Gal(b1-4)GlcNAc(b1-3)Gal(b1-4)Glc
Procedure, shortened: as §1

[15] = target: Gal(b1-4)GlcNAc(b1-3)[Fuc(a1-3)[Gal(b1-4)]GlcNAc(b1-6)]Gal(b1-4)Glc
Procedure, shortened: as §1

[16] = target: Gal(b1-4)GlcNAc(b1-3)[Gal(b1-4)GlcNAc(b1-6)]Gal(b1-4)Glc
Procedure, shortened: as §1

[17] = target: Gal(b1-4)GlcNAc(b1-3)[Gal(b1-4)GlcNAc(b1-6)]Gal(b1-4)GlcNAc(b1-3)Gal(b1-4)Glc
Procedure, shortened: as §1

[18] = target: Gal(b1-4)GlcNAc(b1-3)[Gal(b1-4)GlcNAc(b1-6)]Gal(b1-4)GlcNAc(b1-3)[Gal(b1-4)GlcNAc(b1-6)]Gal(b1-4)GlcNAc(b1-3)Gal(b1-4)Glc
Procedure, shortened: as §1

[19] = target: Gal(b1-4)GlcNAc(b1-3)[Gal(b1-4)GlcNAc(b1-6)]Gal(b1-4)GlcNAc(b1-3)[Gal(b1-4)GlcNAc(b1-6)]Gal(b1-4)GlcNAc(b1-3)[Gal(b1-4)GlcNAc(b1-6)]Gal(b1-4)GlcNAc(b1-3)Gal(b1-4)Glc
Procedure, shortened: as §1

[20] = target: Gal(b1-4)GlcNAc(b1-3)[Gal(b1-4)GlcNAc(b1-6)]Gal(b1-4)GlcNAc(b1-3)[Gal(b1-4)GlcNAc(b1-6)]Gal(b1-4)GlcNAc(b1-3)[Gal(b1-4)GlcNAc(b1-6)]Gal(b1-4)GlcNAc(b1-3)[Gal(b1-4)GlcNAc(b1-6)]Gal(b1-4)GlcNAc(b1-3)Gal(b1-4)Glc
Procedure, shortened: as §1

Gal(b1-6)GalNAc = target: Gal(b1-6)GalNAc
Procedure, shortened: as §1

[21] = target: Gal3S(b1-3)GalNAc(b1-4)Gal3S(b1-4)Glc
Procedure, shortened: as §1

[22] = target: Gal3S(b1-3)[Fuc(a1-4)]GlcNAc
Procedure, shortened: as §1

[23] = target: Gal3S(b1-3)[Fuc(a1-4)]GlcNAc(b1-3)Gal(b1-4)Glc
Procedure, shortened: as §1

Gal3S(b1-4)Glc = target: Gal3S(b1-4)Glc
Procedure, shortened: as §1

Gal3S(b1-4)GlcNAc = target: Gal3S(b1-4)GlcNAc
Procedure, shortened: as §1

[24] = target: Gal3S(b1-4)GlcNAc(b1-3)Gal
Procedure, shortened: as §1

[25] = target: Gal6S(b1-3)[Fuc(a1-4)]GlcNAc(b1-3)Gal(b1-4)Glc
Procedure, shortened: as §1

GalNAc(a1-3)Gal(b1-4)Glc = target: GalNAc(a1-3)Gal(b1-4)Glc
Procedure, shortened: as §1

GalNAc(a1-3)GalNAc = target: GalNAc(a1-3)GalNAc
Procedure, shortened: as §1

GalNAc(b1-4)Gal(b1-4)Glc = target: GalNAc(b1-4)Gal(b1-4)Glc
Procedure, shortened: as §1

[26] = target: GalNAc(b1-4)Gal3S(b1-4)Glc
Procedure, shortened: as §1

[27] = target: GalNAc3S(b1-4)Gal3S(b1-4)Glc
Procedure, shortened: as §1

Glc(a1-2)Glc = target: Glc(a1-2)Glc
Procedure, shortened: as §1

[28] = target: Glc(a1-3)Man(a1-2)Man(a1-2)Man(a1-3)[Man(a1-2)Man(a1-3)[Man(a1-2)Man(a1-6)]Man(a1-6)]Man(b1-4)GlcNAc(b1-4)GlcNAc
Procedure, shortened: as §1

Glc(a1-4)Glc = target: Glc(a1-4)Glc
Procedure, shortened: as §1

Glc(a1-4)Glc(a1-4)Glc = target: Glc(a1-4)Glc(a1-4)Glc
Procedure, shortened: as §1

[29] = target: Glc(a1-4)Glc(a1-4)Glc(a1-4)Glc
Procedure, shortened: as §1

[30] = target: Glc(a1-4)Glc(a1-4)Glc(a1-4)Glc(a1-4)Glc
Procedure, shortened: as §1

Glc(a1-6)Glc = target: Glc(a1-6)Glc
Procedure, shortened: as §1

[31] = target: Glc(a1-6)Glc(a1-4)Glc(a1-4)Glc
Procedure, shortened: as §1

Glc(a1-6)Glc(a1-6)Glc = target: Glc(a1-6)Glc(a1-6)Glc
Procedure, shortened: as §1

B1: CLECSF8 (Mus musculus), Q9Z2H6 (protein)
chain: HYFLRWTRGSVVKLSDYHTRVTCIREEPQPGATGGTWTCCPVSWRAFQSNCYFPLNDNQTWHESERNCSGMSSHLVTINTEAEQNFVTQLLDKRFSYFLGLADENVEGQWQWVDKTPFNPHTVFWEKGESNDFMEEDCVVLVHVHEKWVWNDFPCHFEVRRICKLPGITFNWKPSK
glycan array binding signal (z-score) [1]: -0.424
glycan array binding signal (z-score) [2]: -0.424
glycan array binding signal (z-score) (Gal(b1-4)Glc): -0.424
glycan array binding signal (z-score) (Gal(b1-4)GlcNAc): -0.424
glycan array binding signal (z-score) [3]: -0.424
glycan array binding signal (z-score) [4]: -0.424
glycan array binding signal (z-score) [5]: -0.424
glycan array binding signal (z-score) [6]: -0.424
glycan array binding signal (z-score) [7]: -0.424
glycan array binding signal (z-score) [8]: -0.424
glycan array binding signal (z-score) [9]: -0.424
glycan array binding signal (z-score) [10]: -0.424
glycan array binding signal (z-score) [11]: -0.424
glycan array binding signal (z-score) [12]: -0.424
glycan array binding signal (z-score) (Gal(b1-4)GlcNAc(b1-3)Fuc): -0.424
glycan array binding signal (z-score) [13]: -0.424
glycan array binding signal (z-score) [14]: -0.424
glycan array binding signal (z-score) [15]: -0.424
glycan array binding signal (z-score) [16]: -0.424
glycan array binding signal (z-score) [17]: -0.424
glycan array binding signal (z-score) [18]: -0.424
glycan array binding signal (z-score) [19]: -0.163
glycan array binding signal (z-score) [20]: -0.424
glycan array binding signal (z-score) (Gal(b1-6)GalNAc): -0.424
glycan array binding signal (z-score) [21]: -0.424
glycan array binding signal (z-score) [22]: -0.424
glycan array binding signal (z-score) [23]: -0.424
glycan array binding signal (z-score) (Gal3S(b1-4)Glc): -0.424
glycan array binding signal (z-score) (Gal3S(b1-4)GlcNAc): 0.465
glycan array binding signal (z-score) [24]: -0.424
glycan array binding signal (z-score) [25]: -0.424
glycan array binding signal (z-score) (GalNAc(a1-3)Gal(b1-4)Glc): -0.424
glycan array binding signal (z-score) (GalNAc(a1-3)GalNAc): -0.424
glycan array binding signal (z-score) (GalNAc(b1-4)Gal(b1-4)Glc): -0.424
glycan array binding signal (z-score) [26]: -0.424
glycan array binding signal (z-score) [27]: -0.424
glycan array binding signal (z-score) (Glc(a1-2)Glc): 0.699
glycan array binding signal (z-score) [28]: -0.424
glycan array binding signal (z-score) (Glc(a1-4)Glc): 0.06
glycan array binding signal (z-score) (Glc(a1-4)Glc(a1-4)Glc): 0.639
glycan array binding signal (z-score) [29]: 1.73
glycan array binding signal (z-score) [30]: -0.424
glycan array binding signal (z-score) (Glc(a1-6)Glc): 0.004
glycan array binding signal (z-score) [31]: 3.29
glycan array binding signal (z-score) (Glc(a1-6)Glc(a1-6)Glc): -0.424
